Results taken from a compilation of properties of binary mixtures (doi:10.1016/j.molliq.2008.06.014).
The densities may have been worked out from excess volumes.

Test: xn = mol fraction of the nth substance listed
Details: 101 kPa

CCCC[n+]1ccn(C)c1.F[P-](F)(F)(F)(F)F + CN(C)CCO
x2 = 0
Details | mass density [kg/m3]
288.15 K | 1376
293.15 K | 1371.7
298.15 K | 1367.4
303.15 K | 1363.3
308.15 K | 1359.5
313.15 K | 1354.9
318.15 K | 1351
323.15 K | 1347.3

CN(C)CCO + CCCC[n+]1ccn(C)c1.F[P-](F)(F)(F)(F)F
mass density [kg/m3]
Details | x1 = 0.1221 | x1 = 0.2143 | x1 = 0.3182 | x1 = 0.4405 | x1 = 0.5166 | x1 = 0.605 | x1 = 0.709 | x1 = 0.8063 | x1 = 0.9128 | x1 = 1
288.15 K | 1347.9 | 1324.3 | – | 1252.8 | – | 1181.7 | – | – | 978.6 | 891.7
293.15 K | 1343.5 | – | 1289.5 | – | – | 1177 | 1120.9 | – | 974 | 887.5
298.15 K | – | 1315.4 | 1285 | 1243.7 | 1213.2 | 1172.6 | 1116.5 | 1054 | – | –
303.15 K | 1335 | 1311.4 | 1280.9 | – | 1209.4 | 1168.9 | 1112.8 | – | 966.6 | 879.3
308.15 K | 1330.9 | 1307 | 1276.4 | – | 1204.4 | 1163.5 | 1107.3 | 1044.8 | 960.7 | 873.4
313.15 K | 1325.9 | 1301.9 | 1271.1 | 1229.3 | 1198.6 | – | 1101.2 | 1038.5 | 954.2 | 869.2
318.15 K | 1322 | 1298 | 1267.5 | 1225.8 | 1195.2 | 1154.4 | 1098.2 | 1035.7 | 951.6 | 865.7
323.15 K | 1318 | 1293.9 | 1263.3 | 1221.5 | – | 1149.9 | 1093.5 | 1031 | 946.8 | –

CCCC[n+]1ccn(C)c1.F[P-](F)(F)(F)(F)F + NCCO
mass density [kg/m3]
Details | x2 = 0 | x2 = 0.1185 | x2 = 0.2113 | x2 = 0.3052 | x2 = 0.4282 | x2 = 0.4918 | x2 = 0.6161 | x2 = 0.6984 | x2 = 0.8022 | x2 = 0.9028
288.15 K | 1376 | 1361.5 | 1348.6 | 1332.8 | 1309.4 | 1295 | 1260.6 | 1231.4 | – | –
293.15 K | 1371.7 | 1357.1 | 1344.2 | – | 1305 | 1290.6 | 1256.2 | 1227 | 1178.4 | 1111.6
298.15 K | – | 1352.8 | – | – | 1300.7 | 1286.3 | 1252 | 1222.8 | – | 1107.6
303.15 K | 1363.3 | 1348.6 | 1335.7 | 1320 | 1296.5 | 1282.1 | 1247.8 | – | 1170.2 | 1103.5
308.15 K | 1359.5 | 1344.7 | 1331.9 | 1316.2 | – | 1278.4 | 1244.2 | 1215 | 1166.7 | 1100.1
313.15 K | 1354.9 | 1340.1 | 1327.2 | – | 1288.1 | 1273.7 | 1239.6 | 1210.4 | 1162.1 | 1095.6
318.15 K | 1351 | 1336.1 | 1323.2 | – | – | – | 1235.4 | 1206.2 | 1157.9 | 1091.3
323.15 K | – | 1332.3 | 1319.4 | – | 1280.4 | 1266 | 1231.9 | 1202.7 | 1154.5 | 1088.1

NCCO + CCCC[n+]1ccn(C)c1.F[P-](F)(F)(F)(F)F
x1 = 1
Details | mass density [kg/m3]
298.15 K | 1012
303.15 K | 1008.2
308.15 K | 1005.2
313.15 K | 1001
323.15 K | 994.1
